The whole screen tested about 48,000 compounds, of which about 120 (0.25%) were called active. Roughly 4% stayed inconclusive and do not appear here. The call rests on the fitted dose curve; in most records, active means well fitted activation curve with a large enough effect; inconclusive means small, poorly fitted or top-dose-only effect, or another doubt; inactive means no such curve, though single readings can be large or run the other way. Some of the results follow.
Experiment: Primary qHTS for Identification of Small Molecule Activators of Huntingtin-Antisense Promoter Activity; further: nearly all actives have a fitted effect of over 55% in size
Conditions: HEK293 HTT-AS promoter firefly luciferase reporter (activity 0% = vehicle and -100% = no light), 24 h; series mostly up to 57.5 µM; activity change, positive = activation: at the top concentration
Summary of the method: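 HEK293 Fluc reporter, 2,500 cells/well, 24 h pre-culture; cpds up to 57.5 uM final, 24 h 37 degrees C; Dual-Glo, 10 min RT; normalized vehicle = 0%, zero RLU = -100%.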

Activity change, positive = activation, inactive:
Cc1ccc(CNS(=O)(=O)c2ccc3[nH]c4c(c3c2)CCCC4)cc1 -16.2%, Cc1cc(F)ccc1NS(=O)(=O)c1ccc(-n2cccn2)cc1 -39.8%, O=C1CS(=O)(=O)C2(C(=O)N(Cc3ccccc3)c3ccccc32)N1c1ccccc1 (centres undefined) -12.8%, Cc1cn[nH]c1, Cc1ccc(CCNC(=O)c2ccc3c(c2)nc2n3CCC(C)C2)cc1 (centres undefined) -2.64%, COc1cc2c(cc1OC)C(COc1ccccc1OC)N(C(=O)COc1ccc(Cl)cc1)CC2 (centres undefined) -32.6%, O=C(C1CCN(c2ncnc3c2nc2n3CCCCC2)CC1)N1CCN(c2cccc(Cl)c2)CC1 -47.8%, COc1ccc(OC)c(CNC(=O)Cc2ccc(NC(=O)N3CCSc4ncccc43)cc2)c1 -29.1%, Cc1cc(C)n(CCc2nc3c4ccccc4nc(N4CCN(c5ccccc5)CC4)n3n2)n1 -7.9%, Cc1ccc(NC(=O)CSc2ccc(-c3cccs3)nn2)cc1Cl -14.5%, CN(c1ccccc1)S(=O)(=O)c1ccc(NC(=O)c2cc(=O)c3ccccc3o2)cc1 6.81%, COCC(=O)NCc1nc2cccnc2n1Cc1ccc(F)cc1 -2.21%, COc1ccc(Nc2cc(C(=O)NCCCN3CCN(c4ccc(OC)cc4)CC3)c3ccccc3n2)cc1 -40.4%, O=C(CCn1cnnn1)Nc1ccc(F)cc1 42.6%, Cc1oc(C)c2c(=O)cc(-c3ccc4c(c3)OCO4)cc(OC(=O)c3cccc(Br)c3)c12 -21%, Cc1ccc(Cn2c(CNS(=O)(=O)c3ccc(F)c(Cl)c3)nc3cccnc32)cc1 -21.2%, COc1ccc(-n2ncc(C(=O)NCCc3ccsc3)c2C2CCN(C(=O)OC(C)(C)C)CC2)cc1 -6.97%, Cc1cc(NC(=O)c2cccc(Cl)c2)ccc1-c1cc2ccccc2oc1=O 17.7%, C=CCc1ccccc1OCCn1c(C2CC(=O)N(Cc3ccc(F)cc3)C2)nc2ccccc21 (centres undefined) -40.2%, Cc1ccc(C)c(NC(=O)N2CCc3cc(S(=O)(=O)N4CCC(C)CC4)ccc32)c1 -18.8%, Cc1ccc2nc(-c3cccc(Cl)c3)c(Nc3ccc4c(c3)OCO4)n2c1 -3.88%, CC(Oc1ccccc1)C(=O)OCc1cc(=O)n2nc(C(C)C)sc2n1 (centres undefined) -10.4%, COc1ccccc1CCNC(=O)C(=O)NCC(c1cccs1)S(=O)(=O)c1ccc(F)cc1 (centres undefined) -32.8%, CCc1ccc(S(=O)(=O)c2nnn3c2nc(NCc2cccc(OC)c2)c2cc(Cl)ccc23)cc1 -18.5%, COc1ccccc1CNC(=O)c1ccc2c(c1)nnn2C1CCCC1 21.3%, Cc1ccc(NC(=O)N2CCN3CCCCC3C2)cc1F (centres undefined) 6.78%, Cc1ccsc1CN(C(=O)c1ccc(Br)cc1)C1CCS(=O)(=O)C1 (centres undefined) -9.45%, O=C(Nc1cccc(-c2nc3ccccc3[nH]2)c1)c1ccccc1F -13%, COc1ccccc1NC(=O)Cn1cc(C(=O)c2ccncc2)c(=O)c2cc(C)ccc21 -10.4%, COc1ccc(Cl)cc1NC(=O)C1CCN(S(=O)(=O)c2ccc3c(c2)CCCN3C(=O)C2CCC2)CC1 15.9%, Cc1cc(=O)[nH]c2nnc(SCC(=O)Nc3ccc(F)cc3F)n12 0.374%, COc1ccc(CCNc2nc(SCc3ccc(F)cc3)nc3ccccc23)cc1OC -29.7%, CC1=C(c2ccc(C)c(C)c2)S(=O)(=O)N=C1N1CCC(C(=O)Nc2ccc(Cl)cc2)CC1 -25.1%, CCc1nn(CC(=O)N2CCN(c3cc(C)ccc3C)CC2)c(=O)c2cc3occc3n12 -13.1%, CCc1ccc(-c2nc(SCC(=O)NCC3CCCO3)c(-c3ccc(F)cc3)[nH]2)cc1 (centres undefined) -11.7%, CNC(=O)c1ccc(CSc2nc3cccnc3n2Cc2cccc(F)c2)cc1 -9.26%, Fc1ccccc1N1CCN(c2ncc3c(n2)CCN(Cc2ccc(Br)s2)C3)CC1 -24.1%, CCOc1ccccc1NC(=O)CN1C(=O)COc2ccc(S(=O)(=O)Nc3ccccc3)cc21 -21.5%, O=C(Cn1c(=O)nc(-c2ccccc2F)c2cc(Cl)ccc21)Nc1ccccc1C(F)(F)F 50.8%, Cc1ccc(-c2nc3nc(C)cc(N4CCN(c5cccc(C)c5)C(C)C4)n3n2)cc1 (centres undefined) 6.67%, Cc1ccc(NC(=O)C2CCCN(S(=O)(=O)c3ccc4[nH]c(=O)ccc4c3)C2)cc1C (centres undefined) -10.5%, CCCCN(C)CCCNC(=O)CN1C(=O)CSc2ccc(S(=O)(=O)N3CCOCC3)cc21 -0.569%, O=C(NCc1cccs1)c1nn(-c2ccccc2F)nc1CO -29.9%, CCCCNC(=O)Cn1ncc2c(C)n(Cc3cccc(Cl)c3)c(C)c2c1=O -25.8%, O=C(Nc1ccc(S(=O)(=O)N2CCCCC2c2cccnc2)cc1)c1ccc(F)cc1 (centres undefined) -43%, COc1ccc(NC(=O)c2cc(S(=O)(=O)N3CCCCC3)cn2C)cc1Cl -23.1%, CCCC(CCC)C(=O)Nc1nnc2n1CCS2 -17.5%, Cc1cccc(N(C)C(=O)c2cc(S(=O)(=O)N3CCCCC3)c[nH]2)c1 -18%, O=C(Nc1ccc(Cl)cc1)c1cc2c(Cl)nc3ccccc3c2s1 -17.1%, CN(C)c1ccc(-c2noc(C3CC(=O)N(c4ccc5c(c4)OCCO5)C3)n2)cc1 (centres undefined) -32.9%, COc1ccccc1C(=O)N1c2ccccc2C(C)(c2ccc(Cl)cc2)CC1(C)C (centres undefined) -50.1%, COC(=O)CSc1nc2sc3c(c2c(=O)n1Cc1ccccc1)CCC(C(C)(C)C)C3 (centres undefined) 5.56%, COc1cc(C(=O)OCCCN2CCCN(CCCOC(=O)c3cc(OC)c(OC)c(OC)c3)CC2)cc(OC)c1OC -17.1%, CCc1ccc(CNC(=O)c2nn(-c3ccc(OC)c(Cl)c3)c(=O)c3c2c2ccccc2n3C)cc1 -6.94%, COc1ccc(-c2c3c(nc4sc(C(=O)Nc5ccccc5F)c(N)c24)CC(C)(C)CC3=O)cc1 10%, CCN(Cc1ccccc1)C(=O)CN1C(=O)CSc2ccc(S(=O)(=O)N(CC)CC)cc21 -7.24%, Cc1cc(C)cc(NC(=O)c2ccc3c(O)c(S(=O)(=O)c4ccccc4)c(=O)[nH]c3c2)c1 -11.8%, COc1cc(Cl)c(C)cc1NC(=O)c1ccc(CN2C(=O)CCn3nc(C)cc32)cc1 -12.5%, Cc1c(Cl)cccc1NC(=O)CSc1ncc(S(=O)(=O)c2ccc(C(C)C)cc2)c(=O)[nH]1 -13.5%, CCC1(c2cnc[nH]2)Cc2ccccc2C1 -12%, COC(=O)c1ccccc1NC(=O)C1(c2cccs2)CCOCC1 -8.43%, CCOC(=O)c1c(C)[nH]c(C)c1S(=O)(=O)N1CCCC(C(=O)Nc2ccc(C)c(N(C)C)c2)C1 (centres undefined) -18.5%, CCOC(=O)c1[nH]c(C)c(CCC(=O)NCc2cccc(C)c2)c1C -6.9%, Cc1ccc(OCC(=O)N(Cc2ccco2)c2ccccn2)cc1 -9.12%, CCNC(=O)C1CCCN(c2nnc(C)c3c(C)n(-c4ccc(C)cc4)nc23)C1 (centres undefined) -6.43%, Oc1c(C(c2ccccc2Cl)N2CCOCC2)sc2nc(-c3ccco3)nn12 (centres undefined) -6.93%, CCC(=O)N1CCc2cc(CNC(=O)Nc3cc(C)ccc3C)ccc21 -5.85%, Cc1cccc(CNC(=O)CN2C(=O)C3CCCCN3c3ccc(C(=O)N4CCCC4)cc32)c1 (centres undefined) -11%, Cc1ccc(-c2nnc(Nc3ccc(Cl)c(Cl)c3)c3ccccc23)cc1S(=O)(=O)N(C)C -42.6%, Cc1ccc(C(=O)N2CCN(c3ccc(F)cc3)CC2)cc1NC(=O)c1nsc2ccccc12 22.1%, CCNC(=O)c1c(NC(=O)Cc2coc3cc(C)ccc23)sc2c1CCCC2 -10.6%, CCn1c(C(=O)NCc2ccc(OC)cc2)cc2sc(Cl)cc21 -27.7%, CCc1ccccc1NC(=O)Cc1cn(C)c2ccccc12 -12%, O=C(Nc1c(O)c2ccccc2oc1=O)c1cccc(F)c1 -9.69%, Cc1ccc(Nc2ncnc3onc(C)c23)cc1Cl -14.1%, CCOc1ccc(S(=O)(=O)Nc2cccc(C)c2)c2cccnc12 -27.2%, O=c1[nH]c2ccc(NCc3ccc(-c4ccc(Cl)cc4)o3)cc2[nH]1 -18.7%, CCOc1ccccc1Nc1nc(-c2ccc(C)cc2)c(CC(=O)O)s1 -11.1%, COc1ccc(CN(C(=O)Nc2cccc(OC)c2)C2CCN(C(C)=O)CC2)cc1 -8.54%, Cc1ccc(NC(=O)CN2C(=O)CC(c3ccc(F)cc3)=Nc3ccccc32)cc1F -21.2%, COc1ccc(C2c3c(oc4ccc(Cl)cc4c3=O)C(=O)N2CCCN(C)C)cc1OC (centres undefined) 2.68%, COc1cccc(CNC(=O)CN2C(=O)N(c3c(C)cccc3C)S(=O)(=O)c3ccccc32)c1OC -37.7%, COc1ccc(OC)c(NC(=O)C(C)n2nc(C)c3c(C)n(-c4ccccc4)nc3c2=O)c1 (centres undefined) -13.4%, COc1ccc2c(c1)CCc1c(C(=O)Nc3c(C)nn(Cc4ccc(Cl)cc4)c3C)noc1-2 -32%, CC1(C)C(N(O)C(=O)Nc2ccc(Cl)cc2)N(c2ccc(Cl)cc2)C(=O)N1CC(=O)NN=CC=Cc1ccc([N+](=O)[O-])o1 (centres undefined) -31.8%, CC[N+](C)(CC)CCOC(=O)C(O)(c1ccccc1)C1CCCCC1 (centres undefined) -0.0759%, CO[C@H]1C[C@@H]2CC[C@@H](C)[C@@](O)(O2)C(=O)C(=O)N2CCCC[C@@H]2C(=O)O[C@H]([C@@H](C)C[C@@H]2CC[C@H](O)[C@H](OC)C2)CC(=O)[C@H](C)C=C(C)[C@@H](O)[C@@H](OC)C(=O)[C@H](C)C[C@H](C)C=CC=CC=C1C -2.92%, CCOc1ccc(NC(=O)Cn2nnc(C(=O)NCc3cccs3)c2N)cc1 -8.95%, COc1ccc(/C=C\c2onc(C)c2S(=O)(=O)N2CCC(C(=O)Nc3cccc(C)c3C)CC2)cc1 -4.69%, CC(=O)c1ccc(Nc2nc3ccccc3nc2-n2nc(C)cc2C)cc1 20.2%, CC(=O)c1cccc(NC(=O)Cn2c(=O)oc3cc(S(=O)(=O)NC4CCCC4)ccc32)c1 -19.4%, CC(=O)N1CCN(c2nc3c(C)ccc(Cl)c3s2)CC1 15.1%, COc1cccc(NC(=O)CSc2nccn2Cc2ccc3c(c2)OCO3)c1 5.86%, Cc1nc(-n2nc(C)c(Cc3ccc(Cl)cc3)c2C)sc1C(=O)N1CCCCC1C (centres undefined) -15%
